The full ranking holds about 110,000 compounds; the median of “z-score” is about -0.1, and the highest 2% start at about 2. Some of the results follow.

The target of this assay is Metabotropic glutamate receptor 8 (Rattus norvegicus) (UniProt P70579). As to the kind of experiment: mGluR8 Gi/Go-coupled signaling modulation – cell-based, rat, thallium flux, HTS, primary screen (AID 488969). The following applies: HEK293 rat mGluR8, GIRK (G protein-gated inwardly rectifying potassium channel) thallium flux, FluoZin2; at 10 µM; stronger effect = higher value; submaximal glutamate (EC20) added with thallium.
Chain of UniProt P70579 (P70579 whole entry, looked up): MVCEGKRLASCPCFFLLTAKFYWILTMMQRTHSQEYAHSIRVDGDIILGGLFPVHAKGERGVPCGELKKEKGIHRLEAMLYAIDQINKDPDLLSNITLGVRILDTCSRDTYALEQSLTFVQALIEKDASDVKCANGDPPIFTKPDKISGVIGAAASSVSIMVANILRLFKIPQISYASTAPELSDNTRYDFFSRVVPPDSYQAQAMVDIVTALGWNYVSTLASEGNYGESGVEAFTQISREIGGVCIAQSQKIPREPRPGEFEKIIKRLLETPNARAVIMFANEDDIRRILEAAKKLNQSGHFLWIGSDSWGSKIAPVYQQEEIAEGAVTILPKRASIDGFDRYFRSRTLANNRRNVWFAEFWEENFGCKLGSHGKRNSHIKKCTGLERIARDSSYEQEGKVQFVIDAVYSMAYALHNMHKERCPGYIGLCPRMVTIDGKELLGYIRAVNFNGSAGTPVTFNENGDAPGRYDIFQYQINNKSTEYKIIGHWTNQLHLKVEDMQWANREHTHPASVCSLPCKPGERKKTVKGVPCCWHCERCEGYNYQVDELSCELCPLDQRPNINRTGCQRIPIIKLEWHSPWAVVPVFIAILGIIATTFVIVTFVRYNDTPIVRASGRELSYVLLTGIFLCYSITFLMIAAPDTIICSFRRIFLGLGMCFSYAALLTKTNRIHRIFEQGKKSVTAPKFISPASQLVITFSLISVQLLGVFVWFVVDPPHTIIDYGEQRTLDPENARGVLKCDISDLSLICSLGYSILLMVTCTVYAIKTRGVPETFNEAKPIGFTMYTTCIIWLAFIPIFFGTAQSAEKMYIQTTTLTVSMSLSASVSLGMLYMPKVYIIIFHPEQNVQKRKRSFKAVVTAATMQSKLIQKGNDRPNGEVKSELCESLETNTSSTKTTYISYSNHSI
Compound `Cn1cnc([N+](=O)[O-])c1NC(C)(C)C` gave a z-score of 0.469.
The figure for `OC1(c2ccc(F)cc2)CN(c2ccccc2)C2=[N+]1CCS2` (stereo unspecified) is -0.591; for `Cc1ccc(C)c2[nH]c(=O)c(C(c3nnnn3C(C)(C)C)N3CC=C(c4ccc(F)cc4)CC3)cc12` (stereo unspecified) it is -0.208; for `CCCCCCn1c(C)nc2c(c1=O)c1nc3ccccc3nc1n2/N=C/c1ccco1` it is 0.218.
Next, `O=C(NCCN1CCCC1)C1(S(=O)(=O)c2ccc(Cl)cc2)CC1`: 0.00974; `COC(=O)/C=C/C(=O)N1CCN(c2cccc(Cl)c2)CC1`: 0.228; `Cc1c(CNCc2cccs2)c(C(=O)O)c(C)n1Cc1ccccc1`: -0.442.
In the case of `O=C(Nc1cccc(-c2cn3ccccc3n2)c1)c1cnccn1`, the z-score came out at 0.132.
Compound `Cc1c(C(=O)Nc2nc3ccccc3[nH]2)cccc1[N+](=O)[O-]` yielded a z-score of 0.835.
Consider `CC(=O)Oc1c(C)cc(O)c2ccccc12`, for which the z-score was -0.327.
Compound `CCCCCSc1nnc(C)c(=O)[nH]1` displayed a z-score of -0.099.
Next, `COc1cccc(-n2c(CN3CCN(c4cccc(C)c4)C(C)C3)nc3ccc([N+](=O)[O-])cc3c2=O)c1` (stereo unspecified): -0.14.
`CC(C)c1nnc(NC(=O)CCC(=O)Nc2ccc(F)cc2)s1` had a z-score of 0.0341.
The figure for `Cc1ccc(C(=O)Nc2ccc(F)cc2F)o1` is -0.0232; for `O=C(Cc1nc(-c2ccc([N+](=O)[O-])cc2)cs1)Nc1ccccc1` it is -0.161.
In turn, `OCCNCCCCOc1ccc(OCc2ccccc2)cc1` registered a z-score of 0.352.
Next, `Cc1cc2c(cc1C)-c1nnc(-c3ccc4ccccc4n3)n1C(C)(C)C2`: -0.849; `O=C(c1ccccc1)N1CCN(Cc2ccccc2)CC1`: -0.853; `CCOc1ccc(/C=C2\SC(=S)N(Nc3ccccc3)C2=O)cc1OC`: 1.05.
`COc1ccc(OC2C(=O)N(Cc3ccc4c(c3)OCO4)C2c2cccs2)cc1` (stereo unspecified): the z-score was -0.163.
`CCOC(=O)c1ccc(NC(=O)N2CC(C)OC(C)C2)cc1` (stereo unspecified): the z-score is -0.356.
The figure for `Cn1sc(NC(=O)c2cccc(Cl)c2)nc1=O` is 0.875.
Next, `O=C(NCc1ccc2c(c1)OCO2)C1CCN(S(=O)(=O)c2cccs2)CC1`: -0.274.
The figure for `COc1cc(/C=N/NC(=O)CCc2n[nH]c(=O)[nH]c2=O)ccc1O` is 0.337; for `c1ccc2c(c1)sc1nnnn12` it is 0.901; for `CC1CN(S(=O)(=O)c2ccc(Cl)c(S(=O)(=O)N3CC(C)OC(C)C3)c2)CC(C)O1` (stereo unspecified) it is -0.309.
Take `CC12CCC(C(=O)Nc3cccnc3)(CC1=O)C2(C)C` (stereo unspecified): the z-score is -0.316.
As for `CCOC(=O)C1=C(C)N(c2ccc(OC)cc2)C(=O)/C1=C\c1cccs1`, the z-score was -0.132.
The figure for `CCCCNC(=O)Nc1nnc(-c2ccc(Cl)cc2)o1` is -0.915; for `CN1C(=O)c2ccccc2C(C(=O)O)C1c1cn(C)c2ccccc12` (stereo unspecified) it is -0.114; for `COC(=O)c1cc(C(=O)Nc2cccc(C)n2)cc([N+](=O)[O-])c1` it is -0.243.
Next, `COc1ccc(-c2nc(SC(CC(=O)NCc3ccccc3)c3ccc(OC)c(OC)c3)n[nH]2)cc1` (stereo unspecified): -0.352; `Cc1occc1C(=O)NCc1ccco1`: 0.0264; `COC(=O)Cc1c[nH]c2cccc(OCC(O)CN(Cc3ccccc3)C(C)C)c12` (stereo unspecified): 0.637.
For `CCc1ccc2[nH]c3nc(SCc4nnc(-c5ccc(C)cc5)o4)nnc3c2c1`, the z-score was -0.413.
For the compound `Fc1ccc(Nc2ncnc3sc4c(c23)CCC4)cc1F`, the z-score was found to be 0.938.
The figure for `COc1ccc2oc(=O)c(NC(=O)C3CCCCC3)cc2c1` is -0.0765.
Turning to `CC/C(O)=C1\C(=O)CC(c2ccccc2)CC1=NCCC(=O)O` (stereo unspecified), the z-score was -0.467.
The figure for `O=C(Nc1cccnc1)c1ccc(COc2ccccc2Cl)o1` is -0.832; for `Cc1cccc(C(=O)N/N=C/C(C)Cc2ccc3c(c2)OCO3)c1` (stereo unspecified) it is -0.261; for `O=c1[nH]c2ccc(S(=O)(=O)N3CCN(C4CCCCC4)CC3)cc2[nH]c1=O` it is -0.0711.
Next, `COc1ccccc1OCC(=O)Nc1ccc(CSc2ccccc2)cc1C`: -0.0901; `Cc1ccc2nc(-c3ccc(N4C(=N)SC5CS(=O)(=O)CC54)cc3)sc2c1` (stereo unspecified): 2.09.
Next, `Cc1ccc(C(=O)NCCNc2ccc([N+](=O)[O-])cc2C(F)(F)F)cc1`: -0.285.
With `NC(=O)N/N=C/c1cc(Br)ccc1OC(=O)c1ccccc1`, the z-score was -0.422.
As to `O=C(NC(=S)Nc1ccc(S(=O)(=O)N2CCCC2)cc1)C1CCC1`, the z-score is -0.279.
As to `Cc1csc(NC(=O)CCc2ccc(S(=O)(=O)N3CCOCC3)cc2)n1`, the z-score was -0.107.
As for `O=C(c1ccccc1)C(Cn1cncn1)C(Sc1ccccc1)c1ccccc1` (stereo unspecified), the z-score was -0.248.
Turning to `Cc1cc(NC(=O)C2CCCCC2)nc2c1c(=O)oc1ccccc12`, the z-score was -0.26.
As for `Cc1ccc(Nc2nnc(-c3ccc(N4CCOCC4)c([N+](=O)[O-])c3)c3ccccc23)cc1`, the z-score was -2.12.
For `O=C(OCC(CO)OC(CO)n1ccc(=O)[nH]c1=O)c1ccccc1` (stereo unspecified), the z-score came out at 0.279.
Next, `CCn1nc(C)c(/C=N/NC(=O)c2ccc3c(c2)c(C)c(C)n3Cc2ccccc2)c1C`: -0.331; `CC(=O)c1ccc(N2CCN(C(C)C(=O)NC3CCCc4ccccc43)CC2)cc1` (stereo unspecified): -0.818.
Next, `Cc1ccc(CNC(=O)CSc2c3c(nc4cc(Cl)ccc24)CCCC3)o1`: -0.496; `Cc1cccc(-c2noc(-c3cc4ccccc4oc3=O)n2)c1`: 0.602.
With `CN1CCN(S(=O)(=O)c2ccc(C(=O)Nc3ccccc3)cc2)CC1`, the z-score is -0.612.
`CSc1ccccc1NC(=O)c1cccs1` registered a z-score of -0.371.
The figure for `O=C(Nc1ccc2c(c1)OCO2)c1noc2c1CCCCC2` is 0.597.
Next, `C=CCn1c(SCC(=O)Nc2ccc3c(c2)OCCO3)nnc1-c1ccco1`: 0.179; `NC(Cc1ccc(O)c([N+](=O)[O-])c1)C(=O)O` (stereo unspecified): -0.0752; `COC(=O)C1C(=O)C2=C(CC1C)NC(C)=C(C(=O)OC1CCCC1)C2c1ccc(N(C)C)cc1` (stereo unspecified): -0.651.
`CC(=O)Nc1ccc(NC(=O)C(C)n2nc([N+](=O)[O-])c(Br)c2C)cc1` (stereo unspecified) yielded a z-score of -0.151.
The figure for `COc1ccc(NC(=O)N2CCCC(C(=O)NC(C)C)C2)cc1` (stereo unspecified) is 0.156; for `CC(=O)CSc1nnc(-c2ccncc2)n1C` it is 0.1; for `CCOC(=O)c1[nH]nc(-c2c(O)cc(C)cc2O)c1-c1csc(C)n1` it is -0.402.
The figure for `O=c1oc2ccccc2cc1-c1csc(Nc2nc3c(F)cccc3s2)n1` is 0.848; for `CCOc1c(Br)cc(/C=C2/SC(=O)N(CC(=O)N3CCCC3)C2=O)cc1OC` it is -0.0467; for `O=C(CN1C(=O)NC(Cc2ccccc2)C1=O)Nc1ccccc1` (stereo unspecified) it is 0.158.
Next, `COc1ccccc1/C=N/NC(=O)c1cccc(OC(F)(F)C(F)F)c1`: -0.0658.
Consider `COc1cccc(C(=O)Nc2ccccc2N2CCOCC2)c1`, for which the z-score was determined as 0.0601.
Take `COc1cc(/C=C2\C(=O)N(C)C(=S)N2C)ccc1O`: the z-score was -0.152.
For `CC(C)CC(=O)Nc1cccc(NC(=O)CC(C)C)n1`, the z-score was -0.0574.
The compound `CSc1nnc(-c2ccccc2)n1C` yielded a z-score of -0.153.
Turning to `N=c1sccn1CC(=O)Nc1ccc(Cl)c(S(=O)(=O)N2CCOCC2)c1`, the z-score stood at 0.131.
Next, `COc1ccccc1C(=O)Nc1ccccc1N1CCN(S(C)(=O)=O)CC1`: 0.336.
The compound `COC(=O)Cn1cc(C(=O)OC)c2ccccc21` returned a z-score of 0.258.
For `CC/C(=N\NC(=O)Nc1ccccc1)c1ccccc1`, the z-score is -0.238.
The compound `Cn1ccnc1SCc1cc(=O)[nH]c2ccccc12` gave a z-score of -0.0852.
Next, `CCOC(=O)Cc1c(C)[nH]c(=S)[nH]c1=O`: -0.0991; `COc1ccc(CNC(=S)Nc2ccccc2C)cc1`: -0.145; `O=C(COc1ccc(Cl)cc1)N1CCN(S(=O)(=O)c2ccccc2)CC1`: 0.0293.
Compound `CCn1c(O)c(/C=C2\C=Nc3ccccc32)sc1=Nc1ccccc1` had a z-score of -0.146.
On to `Cc1sc2nc3n(c(=O)c2c1C)CCCCC3`, for which the z-score was -0.206.
In turn, `COc1nc(-c2ccccc2)ccc1-c1noc(C)n1` returned a z-score of 0.0211.
For `CCC(C)/C(C)=N/NC(=O)C1COc2ccccc2O1` (stereo unspecified), the z-score was found to be 0.0736.
Compound `CCCN(C(=O)CSc1cc(-c2ccccc2)c2ccc(OC)cc2n1)C1CCS(=O)(=O)C1` (stereo unspecified) gave a z-score of -0.403.
On to `S=c1[nH]nc(CCc2ccccc2)n1Cc1ccccc1`, for which the z-score was -0.0986.
Turning to `O=C(C(Cl)Cl)N1CCN(c2ccccn2)CC1`, the z-score amounted to 0.168.
For `Clc1ccc(-c2cc(-c3nnc4n3CCCCC4)c3ccccc3n2)cc1`, the z-score was determined as 2.08.
`COc1ccc(N(C(C)=O)S(=O)(=O)c2cccc3cccnc23)cc1` had a z-score of -0.162.
The compound `N#Cc1c(N)nc2c(c1N)CC(=O)N2c1ccccc1-c1ccccc1` yielded a z-score of 0.0698.
The figure for `Cc1ccccc1OCC(=O)N/N=C/c1cc2ccccc2nc1Cl` is -0.172.
The figure for `CCCCNC(=O)C1CCCN(S(=O)(=O)c2ccc(-n3cnnn3)cc2)C1` (stereo unspecified) is -0.378; for `O=C(CCCCCn1c(SCc2ccncc2)nc2ccccc2c1=O)NCc1ccco1` it is -0.274; for `COc1ccc(-n2c(SC)nnc2-c2c[nH]c3ccccc23)cc1` it is -0.388.
Next, `CCOC(=O)/C(C(=O)Nc1ccc(Br)cc1)=C1/NC(C)(C)Cc2ccccc21`: -0.363; `COc1ccc(Nc2ncc(C(=O)N3CCC(C(N)=O)CC3)c3ccccc23)cc1`: -0.199; `CCOc1cc(C)c(S(=O)(=O)Nc2ccc(F)cc2)cc1C`: 0.564.
As for `COc1ccc(OC)c(CN2CCCC(C(=O)N3CCCCC3)C2)c1` (stereo unspecified), the z-score came to 0.841.
Next, `CC(C)C(=O)Nc1ncc2c(n1)CC(c1cccs1)CC2=O` (stereo unspecified): -0.364; `O=C(N/N=C/c1ccc(O)cc1)c1cc[n+](Cc2ccccc2)cc1`: -0.114; `O=C(COc1cccnc1[N+](=O)[O-])N1CCN(S(=O)(=O)c2ccccc2)CC1`: -0.0792.
The compound `Cc1ccc(NC(=O)CCC(=O)NNC(=O)C(c2ccccc2)c2ccccc2)c(C)c1` showed a z-score of 0.0309.
Consider `COc1ccc(C2NC(=O)CS2)cc1` (stereo unspecified), for which the z-score was found to be 0.0416.
Compound `O=C(Nc1nnc(CCS(=O)(=O)c2ccc(Br)cc2)s1)c1ccc([N+](=O)[O-])cc1` yielded a z-score of -0.105.
For the compound `Cn1c(Cn2cnc(Cl)c2Cl)nc2ccccc21`, the z-score turned out to be 0.488.
The figure for `COc1cc2c(C(=O)NCCCOC(C)C)cn(CC(C)C)c(=O)c2cc1OC` is -0.641.
For the compound `COc1ccc(-n2ncc(N(C)n3cccc3)c(Cl)c2=O)cc1`, the z-score amounted to 0.184.
Turning to `O=C(CN1C(=O)CC(c2ccccc2)=Nc2ccccc21)NC1CCCCC1`, the z-score is 0.0429.
As to `Cc1ccc(S(=O)(=O)N(C)C)cc1NC(=O)CN1C(=O)NC2(CCCc3ccccc32)C1=O` (stereo unspecified), the z-score was -0.342.
The figure for `COc1ccc2cc(S(=O)(=O)N3CCOCC3)ccc2c1` is 0.596.

The values above are taken from PubChem BioAssay AID488969 (Vanderbilt High Throughput Screening Facility, 2010).
